Experimental data reported in PubChem BioAssay AID1347120 (National Center for Advancing Translational Sciences (NCATS), 2019).
Hit rate of the full screen: of about 390,000 compounds, about 930 (0.24%) were called active. Inconclusive results, whose numbers are uncertain, are shown with a selection of clear calls. Calls follow the shape of the dose curve; as a rule, active = well fitted activation curve with a large enough effect; inconclusive = small, poorly fitted or top-dose-only effect; inactive = no such curve, though single readings can be large or run the other way. A potency beside an inconclusive call is a rough fit, not a confirmed value.
Potency is read from the fitted curve at half-maximal effect; tags tell the direction and shape of the fitted curve.

Assay: qHTS for Suppressors of FUS Proteinopathy: Primary screen using FUS-linked yeast assay; also: nearly all actives have a fitted effect of over 55% in size
Settings: S. cerevisiae FUS-expressing, OD600, 24 h; Potency: growth rescue; series mostly up to 76.6 µM
Outline: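 FUS-expressing yeast, raffinose-pregrown, induced in 2% galactose minimal medium at OD 0.005; compounds in a dilution series, 24hr at 30C. Growth restoration read as absorbance at 600 nm. CP55940 positive control, DMSO negative.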
In the case of CCc1nc2c(OCCC3CCCCC3)cccn2c1N(C)C(=O)c1ccccc1F, the Potency is reported as inconclusive: 31.6 µM [activator, partial curve, poor fit].
For Cc1ccccc1Nc1nc(N)nc(COC(=O)CCS(=O)(=O)c2ccccc2)n1, the Potency was inconclusive: 10 µM [activator, partial curve].
In the case of COc1cc(NC(=O)c2ccccc2)c(C)cc1NC(=O)CSc1nnc(-c2ccccc2F)n1-c1ccc(C)cc1, the Potency is reported as active: 10 µM.
For CCn1cc2nc(SCc3cccc(C(F)(F)F)c3)n(Cc3ccc(OC)cc3)c(=O)c2n1, the Potency was inconclusive: 17.8 µM [activator, single point].
For CN(CCc1ccccc1)C(c1ccnc2ccccc12)c1nnnn1-c1ccc2c(c1)OCCO2 (configuration not stated), the Potency was inconclusive: 22.4 µM [activator, partial curve, poor fit].
For COc1ccccc1CNC(=O)c1cccc(S(=O)(=O)N2CCN(c3ccc(F)cc3)CC2)c1, the Potency was inconclusive: 31.6 µM [activator, single point].
For CC1CCCN(S(=O)(=O)c2ccc(NC(=O)[C@@H]3CCCN3C(=O)c3cccs3)cc2)C1 (some centres not stated), the Potency was inconclusive: 50.1 µM [activator, partial curve, poor fit].
For COc1ccc(-c2cc(=O)oc3c4c(ccc23)OCN(Cc2ccccc2)C4)cc1, the Potency was “inactive”.
With Cc1nn(-c2ccccc2)c(C)c1NC(=O)COC(=O)c1ccc(NC(=O)CC#N)cc1 the Potency was inconclusive: 14.1 µM [activator, partial curve].
In the case of O=c1[nH]c(=S)[nH]c2c1C(c1ccc(Cl)cc1)OC(C1CCCCC1)C2 (configuration not stated), the Potency is reported as inconclusive: 50.1 µM [activator, single point].
With C=CCN1C(=O)C(CC(=O)Nc2ccccc2)SC1=Nc1c(C)n(C)n(-c2ccccc2)c1=O (configuration not stated) the Potency was inconclusive: 25.1 µM [activator, partial curve, poor fit].
With Cn1nnnc1SCc1csc(C2C(C#N)=C(N)OC3=C2C(=O)CCC3)c1 (configuration not stated) the Potency was “inactive”.
With N#CCCN1CCN(C(=S)c2ccc(-c3ccc(Cl)cc3)o2)CC1 the Potency was “inactive”.
For Cc1cc(-c2ccc(C)c(S(=O)(=O)NCc3cccs3)c2)on1, the Potency was “inactive”.
For COc1ccc(S(=O)(=O)N(C)C[C@@H]2Oc3cc(Br)ccc3S(=O)(=O)N([C@H](C)CO)C[C@@H]2C)cc1, the Potency was inconclusive: 25.1 µM [activator, single point].
With CCOc1ccc2cc(C3CC(c4ccco4)=NN3S(C)(=O)=O)c(=O)[nH]c2c1 (configuration not stated) the Potency was inconclusive: 35.5 µM [activator, partial curve, poor fit].
In the case of COCCN(Cc1cc2cc(C)ccc2nc1Cl)C(=O)Nc1ccccc1OC, the Potency is reported as “inactive”.
